In paper PMC6919601, “Identification of Plasmodium dipeptidyl aminopeptidase allosteric inhibitors by high throughput screening” (PLoS ONE, 2019):
Where “and” joins values, the source holds several entries; their conditions need not be identical. Equal entries are not always repeated. The campaign covered roughly 110,000 compounds. About 230 (0.21%) showed an effect of 50% or more. The list shows a part of the results.

target: DPAP1 (Plasmodium falciparum, UniProt Q8IIJ9); assay: primary screen, percent inhibition; read by cleavage of a fluorogenic dipeptide substrate; higher = more effect of the substance; set-up: species or system P. falciparum D10 trophozoite lysates; single well
Sequence (Q8IIJ9 whole entry, looked up): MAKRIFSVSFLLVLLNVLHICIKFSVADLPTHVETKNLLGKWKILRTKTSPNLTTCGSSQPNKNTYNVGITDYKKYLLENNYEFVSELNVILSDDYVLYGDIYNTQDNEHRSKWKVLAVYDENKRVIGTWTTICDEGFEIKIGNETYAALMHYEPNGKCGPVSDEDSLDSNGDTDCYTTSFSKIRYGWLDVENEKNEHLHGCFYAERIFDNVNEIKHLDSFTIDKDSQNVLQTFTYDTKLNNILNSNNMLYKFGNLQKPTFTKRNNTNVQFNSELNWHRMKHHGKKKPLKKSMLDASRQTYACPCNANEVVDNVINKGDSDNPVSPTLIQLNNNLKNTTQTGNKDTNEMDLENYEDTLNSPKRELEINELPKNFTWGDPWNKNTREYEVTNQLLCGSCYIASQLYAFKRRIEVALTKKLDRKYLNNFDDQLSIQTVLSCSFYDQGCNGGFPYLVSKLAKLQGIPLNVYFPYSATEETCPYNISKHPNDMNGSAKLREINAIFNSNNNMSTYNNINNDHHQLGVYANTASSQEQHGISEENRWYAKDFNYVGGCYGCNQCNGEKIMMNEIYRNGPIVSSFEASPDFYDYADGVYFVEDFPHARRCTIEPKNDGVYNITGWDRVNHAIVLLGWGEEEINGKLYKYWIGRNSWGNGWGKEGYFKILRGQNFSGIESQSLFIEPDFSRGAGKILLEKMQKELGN
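Further: 30 min substrate incubation versus DMSO and 10 µM JCP410 controls.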

Point of comparison: `CC(C)CCNc1sc(S(C)(=O)=O)nc1S(=O)(=O)c1ccc(Cl)cc1`, “% Inhibition @ 10 uM” value -2.25%. Against it:
- CC(CCCC(C)(C)O)CC1OCCO1 (centres unmarked) — higher, 6.8%
- CC(C)Oc1ccccc1C1CC(=O)NC1=O (centres unmarked) — lower, -3.93%
- CSCCCN(C)CCc1ccccn1 — lower, -7.56%
- O=C(NC1CCS(=O)(=O)C1)/C(=C\c1ccc(F)cc1)NC(=O)c1ccccc1 (centres unmarked) — higher, -0.988%
- COc1ccc(Cl)cc1-n1nnc(-c2nc(-c3cccnc3)no2)c1N — higher, 4.73%
- O=C(O)CCN(CC(=O)O)C(=O)c1ccccc1 — higher, 2.59%
- CC(=O)c1c(C)oc2ccc(N(C(=O)c3ccncc3)S(=O)(=O)c3c(C)cc(C)cc3C)cc12 — higher, 5.03%
- C=CCN1C(=O)/C(=C/c2ccc3ccccc3n2)S/C1=N/S(=O)(=O)c1ccc(C)cc1 — higher, 4.84%
- COc1cc(CNCC2CCCO2)ccc1OCc1ccc(Cl)cc1 (centres unmarked) — lower, -3.45%
- COC(=O)c1c(-c2ccc(F)cc2)noc1N — higher, 2.34%
- Cc1nn(CC(=O)Nc2cc(C)n(Cc3ccc(F)cc3)n2)c(C)c1Cl — higher, -1.85%
- COc1ccc(NC(=O)c2ccccc2OC)cc1OC — higher, 5.09%
- CCOC(=O)N1CCN(S(=O)(=O)c2cc(C)c(C)cc2OC)CC1 — higher, 0.64%
- Cc1cccc(OCc2nc(-c3nonc3N)no2)c1C — higher, 3.96%
- CCOC(=O)c1c(C)c(-c2ccccc2)n(CC(=O)Nc2ccc(C)cn2)c1C — higher, -1.66%
- O=c1c2cccnc2nc(SCc2cccc(F)c2)n1Cc1ccccc1 — higher, -1.66%
- CC(O)c1ccc(NC(=O)c2cnn3c2NC(c2cccs2)CC3C(F)(F)F)cc1 (centres unmarked) — lower, -4.4%
- CNC(=O)Cn1cccc1C(=O)c1ccccc1 — higher, 4.33%
- OCCN1CCN(C(c2cccc(Cl)c2)c2ccccc2Cl)CC1 (centres unmarked) — lower, -8.26%
- O=C(C1=C(O)C(=O)N(CCc2c[nH]c3ccccc23)C1c1cccnc1)c1ccccc1 (centres unmarked) — higher, 2.13%
- COc1ccc(CCNCc2c(C(=O)O)n(C)c3ccccc23)cc1OC — higher, 3.54%
- COc1ccc(/C=C2\S/C(=N/c3cccc(C(=O)O)c3)N(C)C2=O)cc1C — higher, -1.57%
- Cc1ccc(/C=C2\CCCC3=C2Nc2nnnn2C3c2ccc(C)cc2)cc1 (centres unmarked) — higher, 3.32%
- CCC1CCCCN1C(=O)c1cc(-c2ccc(F)cc2)on1 (centres unmarked) — higher, 1.37%
- COc1ccc(NC(=O)[C@@H]2C3C=CC(O3)[C@@H]2C(=O)O)cc1 (some centres unmarked) — lower, -2.29%
- COCCNC(=O)CS(=O)Cc1nc(-c2cccs2)oc1C (centres unmarked) — higher, 3.19%
- CC(C)(COC(=O)c1cccs1)NC(=O)C12CC3CC(CC(C3)C1)C2 — higher, -0.403%
- CCc1ccc(-n2c(C)nc3cc(C(=O)NCc4cccnc4)ccc32)cc1 — higher, -0.256%
- COc1cc(C(=O)NC(C(=O)O)C(C)C)cc(OC)c1OC (centres unmarked) — lower, -4.06%
- CCCC(=O)Nc1ccc(Cl)c(NC(=O)c2cccnc2)c1 — higher, 0.528%
- Cc1cccc2c(O)c(NC(=O)NCc3ccc(C(F)(F)F)cc3)cnc12 — lower, -6.43%
- CCOC(=O)c1sc(N2C(=O)C(O)=C(C(=O)c3ccc(F)cc3)C2c2ccc(OC)cc2)nc1C (centres unmarked) — higher, 5.37%
- COc1cc(OC)c(CN2CCCCCC2)cc1Br — lower, -6.36%
- CC(=O)NC(C)c1nc2ccccc2n1CC(C)C (centres unmarked) — lower, -7.35%
- C/C(=N\N=C\c1c[nH]c2ccccc12)c1nnn(-c2nonc2N)c1C — lower, -3.48%
- CCOC(=O)c1c(NC(C)=O)sc2c1CCC(Sc1ccccc1)C2=O (centres unmarked) — higher, 0.989%
- O=C(CCc1nnc2n(CCc3ccccc3)c(=O)c3ccccc3n12)NCc1ccccc1Cl — higher, -0.692%
- C=C(C)CN(CC)Cc1cc([N+](=O)[O-])ccc1Cl — higher, -1.78%
- OCCN1CCN(Cc2ccccc2F)CC1 — lower, -13.2%
- Cc1ccc(CNC(=O)CSCc2ccc(C)cc2)cc1 — lower, -8.73%
- O=C1C(Cl)=C(NCC2CCCO2)C(=O)N1Cc1ccccc1 (centres unmarked) — higher, 4.75%
- Cc1ccccc1-c1nc(CS(=O)(=O)CC(=O)NCC2CCCO2)c(C)o1 (centres unmarked) — lower, -3.7%
- OC(c1ccccc1)(c1ccccc1)C1CCCCCN1 (centres unmarked) — higher, 1.57%
- Cc1ccc(N2C(=O)CC(NCCN3CCOCC3)C2=O)cc1 (centres unmarked) — lower, -7.61%
- O=C(CN1C(=O)c2ccccc2C1=O)Nc1cnc2ccccc2c1 — lower, -3.21%
- COc1ccc(NC(=O)CCCOc2ccc(Cl)cc2Cl)c(OC)c1 — higher, -0.865%
- COc1ccc(C2C3=C(O)CC(C)(C)CC3=Nc3ccccc3N2C(=O)C(F)(F)F)cc1 (centres unmarked) — higher, -1.44%
- Cc1sc(NC(=O)C2C3CCC(C3)C2C(=O)O)c(C(N)=O)c1-c1ccccc1 (centres unmarked) — lower, -2.6%
- Cc1ccccc1NS(=O)(=O)c1ccc(C2CCCCC2)cc1 — lower, -5.41%
- COc1ccc(-c2noc(CCC(=O)NCC3CCCO3)n2)cc1 (centres unmarked) — higher, -2.21%
- CC(C)(C)NC(=O)C1CCN(S(=O)(=O)c2ccccc2)CC1 — lower, -7.56%
- CCOC(=O)C1=C(Cn2nnc(C(=O)OC)c2C(=O)OC)NC(=O)NC1c1ccccc1 (centres unmarked) — higher, 0.813%
- O=C1c2ccccc2C(=O)N1c1cc([N+](=O)[O-])ccc1F — higher, 4.51%
- COc1ccc(CC(=O)n2nc(-c3ccccc3)nc2NCc2ccco2)cc1 — lower, -4.78%
- CCOc1ccc(CC(=O)Nc2ccccc2C(N)=O)cc1OCC — higher, 1.28%
- CC(=O)OC(C)(C#CCN1CCOCC1)C(C)(C)C (centres unmarked) — lower, -2.32%
- CC(C)Cc1ccc(C#N)c(SCC(N)=O)n1 — higher, -0.13%
- COc1ccc(-n2c(CNCc3ccco3)nc3ccccc3c2=O)cc1 — higher, -1.51%
- O=C(CCCn1ncn2c(cc3occc32)c1=O)NCc1ccccn1 — higher, -2%
- COc1ccc(C(=O)C2=C(O)C(=O)N(Cc3cccnc3)C2c2ccc(C)cc2)cc1C (centres unmarked) — higher, 4.11%
- CCc1ccc(NC(=O)c2c(-c3ccccc3)noc2C)cc1 — lower, -4.39%
- Cc1cccc(C)c1NC(=O)Nc1cccc(Cl)c1 — higher, -2%
- Cc1cc(C)cc(Oc2nc3c(C)cccn3c(=O)c2/C=C(\C#N)C(=O)NCc2ccccc2)c1 — higher, 2%
- O=C(CCCCC(=O)Nc1cccnc1Cl)Nc1cccnc1Cl — higher, -1.37%
- CCc1nc(C)c(C#N)c2cc(OC)c(OC)cc12 — higher, -1.86%
- CN1CCN(c2ccc3nnc(CCC(=O)NCC4CCN(Cc5ccc(F)cc5)CC4)n3n2)CC1 — higher, -0.826%
- CO/C(O)=C1/C(C)=NC2=C(C(=O)CC(C)(C)C2)C1c1ccc(-c2ccccc2)cc1 (centres unmarked) — higher, 2.51%
- Cc1ccc(C2=NC(=O)OC2(C)C)c(C)c1 — higher, 4.88%
- Cc1c(C(=O)N2CCN(C(c3ccccc3)c3ccccc3)CC2)sc(N)c1C#N — higher, 4.88%
- COCCCNC(=O)c1ccc2c(c1)ncn2-c1ccc(C)cc1C — higher, 1.42%
- N#Cc1c(NC(=O)c2ccc(S(=O)(=O)c3ccccc3)cc2)sc2c1CCC2 — lower, -2.87%
- O=C(NCc1ccc2c(c1)OCO2)[C@@H](c1ccccc1)N1Cc2ccccc2C1=O — higher, 4.54%
- CCOc1ccc(CNCc2ccccn2)cc1 — higher, 0.032%
- O=C1c2cccnc2C(=O)N1c1ccc(OC(F)(F)F)cc1 — lower, -3.95%
- c1cc(-c2nc3ccccc3[nH]2)nc(-c2nc3ccccc3[nH]2)c1 — lower, -4.78%
- Cc1cc(C)c(S(=O)(=O)NCc2nc3nc(C)cc(C)n3n2)c(C)c1 — lower, -7.97%
- CC(C)CC(NC(=O)c1ccc(NC(=N)N)cc1)C(=O)NCC#N (centres unmarked) — higher, 5.05%
- Clc1ccccc1-c1nc2nnnn2c2ccc(Br)cc12 — higher, 8.98%
- CCOc1ccc2nc(C)c(CN(C)Cc3ccccc3)c(O)c2c1 — higher, -1.25%
- Cc1cccc(Oc2nc3ccccn3c(=O)c2/C=C(\C#N)c2nc3ccccc3[nH]2)c1 — higher, 6.78%
- O=C(CCSc1nc2cc(Cl)ccc2o1)N1CCOCC1 — lower, -3.45%
- CN(C)CCN(Cc1ccccc1)Cc1ccc(Br)cc1 — lower, -3.58%
- c1sc2c(c1CN1CCCCCC1)CCCC2 — higher, -0.154%
- OCCn1c(CCCCc2nc3ccccc3n2CCO)nc2ccccc21 — higher, 1.74%
- CCCCOC(=O)c1ccc(NC(=O)OC)cc1 — higher, 3.35%
- COc1cc(NC(=O)c2sc3nc(-c4cccs4)ccc3c2N)cc(OC)c1OC — higher, 6.65%
- Cc1nn(C(=O)CCC(=O)NCc2cccs2)c2ccccc12 — lower, -4.71%
- COc1ccc(Cl)cc1N(CC(=O)NC1CC2CCC1C2)S(=O)(=O)c1ccccc1 (centres unmarked) — higher, 0.00477%
- Cc1cc2c(c(=O)o1)C(c1ccc(Br)cc1)C(C#N)=C(N)O2 (centres unmarked) — higher, 4.66%
- NC(=O)C1CCN(C(=O)/C(=C/c2ccco2)NC(=O)c2ccccc2)CC1 — higher, -0.996%
- O=C1CCN(c2cccc(Cl)c2)N1 — higher, 8.73%
- CC1(C)CC(=O)C2=C(C1)N(C1CCCCC1)C(=O)C2(NC(=O)c1ccccc1)C(F)(F)F (centres unmarked) — lower, -3.33%
- O=C(NCc1ccc2c(c1)OCO2)c1ccc2c(c1)OCO2 — higher, 2.23%
- CCOc1ccc(-c2cc(NC(=O)c3noc4c3COc3ccccc3-4)on2)cc1OCC — higher, -1.72%
- CCN1CCN(c2ccc([N+](=O)[O-])cn2)CC1 — higher, -1.56%
- OCC1OC(n2cnc3c(Cl)ncnc32)C(O)C1O (centres unmarked) — higher, 2.79%
- COc1cnn(C(C)(C)C)c(=O)c1O — higher, -0.856%
- Cc1occc1C(=O)Nc1sc(C)c(C)c1C#N — lower, -2.89%
- Cc1ccc(SCCC(=O)Nc2ccccc2Br)cc1 — lower, -5.44%

`O=C(c1ccco1)N1CCN(C/C=C/c2ccccc2)CC1` was tested, and the “% Inhibition @ 10 uM” value was -1.98% and 2.32%.
